Values marked as one replicate rest on one cluster of the flow cell; about a third of the high ones do not repeat.
tested on: ATP; assay: switch fluorescence ratio, 500 uM ATP over buffer (Cy3 cluster intensity, sum of 5 cycles each) (fold (ratio)); higher = stronger signal-on switching upon ATP binding; sequences stand for … in TCGTCGGCAGCGTCAGATGTGTATAAGAGACAGTTTTTTTTTTTTTTTTTTTTTTTTT…TC; settings: aptamer strand: ATP DNA aptamer (quencher-CACCTGGGGGAGTATTGCGGAGGAAGG + anchor), 100 nM annealed; ATP concentration: 500 uM; one replicate
Outline: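 The fluorescence ratio divides summed target-cycle Cy3 intensity by summed buffer-cycle Cy3 intensity for each cluster and is averaged per switch-domain sequence. Cy3-labelled switching-strand clusters on a modified Illumina MiSeq flow-cell were annealed to 100 nM quencher-labelled ATP aptamer, then imaged in selection buffer and again after 15 min with 500 uM ATP at 22 °C. Five such cycles were run, with NaOH stripping and re-annealing between them, and clusters outside 100-1000 RFU were excluded.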
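Note: ATP exposure 15 min at 22 °C before imaging.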

Sequence	switch fluorescence ratio
GGGGTATG	1.01
GGGGTCAGAG	0.964
GGGGTCTTGC	1.05
GGGGTTATG	0.951
GGGGTTCCAA	1.02
GGGGTTTAT	0.976
GGGTAAAGCA	0.984
GGGTAAGATA	0.994
GGGTAAGCAT	1.04
GGGTAATAGG	0.986
GGGTAATGTT	1.03
GGGTACCGAG	1.03
GGGTAGAGTA	0.99
GGGTAGCGTC	1.02
GGGTAGGACT	0.999
GGGTAGGCCC	1.01
GGGTAGTTGT	0.994
GGGTATAGCG	0.925
GGGTATTTC	0.977
GGGTCAGCTC	0.995
GGGTCAGGA	0.992
GGGTCCAGAA	0.989
GGGTCCGACG	1.14
GGGTCCTGCA	1.01
GGGTCGAATT	1.02

Sequence	switch fluorescence ratio
GGGTCGAGTT	0.945
GGGTCGCTCG	1.02
GGGTCGGCCA	1
GGGTCGTTAC	1.36
GGGTCTATTA	0.985
GGGTGAGAAG	0.964
GGGTGCGGG	0.989
GGGTGCTGAT	1.02
GGGTGGCCCA	0.972
GGGTGGCTCC	1.04
GGGTGGGTCT	1.17
GGGTGGTCCA	0.998
GGGTGTACCA	0.973
GGGTGTACCG	0.988
GGGTGTGGAT	1
GGGTGTTCAG	0.965
GGGTTAACGC	1
GGGTTAAGCG	0.98
GGGTTAATCA	1
GGGTTACACT	1.05
GGGTTACTAA	1.04
GGGTTAGTTA	0.972
GGGTTATTCG	1
GGGTTCCGGT	0.99
GGGTTCCGT	0.956

Sequence	switch fluorescence ratio
GGGTTGATTC	0.958
GGGTTGCCCA	0.947
GGGTTTCCGC	1.08
GGGTTTGTCG	0.956
GGTAAAGAGG	0.967
GGTAACCAGC	1.02
GGTAACCGCG	1.08
GGTAAGAGCA	1.02
GGTAATCAGA	1.01
GGTACACCTC	1.02
GGTACACGGC	1.03
GGTACGAAGG	0.956
GGTACTAAGA	1.05
GGTAGAATAT	0.982
GGTAGATATA	0.971
GGTAGCCAGC	1.03
GGTAGCTTTT	1.02
GGTAGGCAAA	1.02
GGTAGGCCAA	1.01
GGTAGGGGAG	0.971
GGTAGGGTTG	0.971
GGTAGTCGGT	0.982
GGTAGTTGTT	0.988
GGTAGTTTTT	1.02
GGTATAACTC	0.994

Sequence	switch fluorescence ratio
GGTATACTCA	1.12
GGTATAGCCA	0.988
GGTATCCGGT	0.988
GGTATCTATA	1.03
GGTATGGATT	1
GGTATGGCTC	0.956
GGTATGTATT	1
GGTATGTCCC	0.972
GGTATTTAGA	0.993
GGTATTTGCG	0.957
GGTCAACCGC	1.07
GGTCAACGCA	1.03
GGTCAATGC	2.3
GGTCAATTCT	0.982
GGTCACATGT	0.977
GGTCACCCTT	1
GGTCACGGCT	0.962
GGTCAGCTTG	0.988
GGTCATTTTG	0.992
GGTCCAAGA	1
GGTCCAGTAC	1.09
GGTCCAGTCA	1.01
GGTCCCAGTT	1.01
GGTCCCATGT	1.03
GGTCCCGTCA	0.954
